Data on 153 variants can be found in a collection of fitness landscapes (doi:10.1126/science.1257360).

First the molecules themselves.
B1: PhoQ; a variant is named by its letters at X, in order, P23837 (parent)
chain: MKKLLRLFFPLSLRVRFLLATAAVVLVLSLAYGMVALIGYSVSFDKTTFRLLRGESNLFYTLAKWENNKLHVELPENIDKQSPTMTLIYDENGQLLWAQRDVPWLMKMIQPDWLKSNGFHEIEADVNDTSLLLSGDHSIQQQLQEVREDDDDAEMTHSVAVNVYPATSRMPKLTIVVVDTIPVELKSSYMVWSWFIYVLSANLLLVIPLLWVAAWWSLRPIEALAKEVRELEEHNRELLNPATTRELTSLVRNLNRLLKSERERYDKYRTTLTDLTHSLKTPLXXLQXXLRSLRSEKMSVSDAEPVMLEQISRISQQIGYYLHRASMRGGTLLSRELHPVAPLLDNLTSALNKVYQRKGVNISLDISPEISFVGEQNDFVEVMGNVLDNACKYCLEFVEISARQTDEHLYIVVEDDGPGIPLSKREVIFDRGQRVDTLRPGQGVGLAVAREITEQYEGKIVAGESMLGGARMEVIFGRQHSAPKDE

The list shows a part of the results.

The variants in the experiment derive from B1. In words: enrichment ratio after two sorts for PhoP signalling (ratio (wild type AVST 3.29)); higher = more functional. The settings on record: with PhoP (E. coli).
As for DYYS, the enrichment ratio is no more than 0.25.

For QELV, the enrichment ratio was no more than 0.25.

Regarding EGSY, the enrichment ratio is no more than 0.25.

With IHLA, the enrichment ratio is no more than 0.25.

As for KKNS, the enrichment ratio was no more than 0.25.

With HAPD, the enrichment ratio is no more than 0.25.

Consider YYHS, for which the enrichment ratio was no more than 0.25.

ENAN: the enrichment ratio is no more than 0.25.

For the variant SHQK, the enrichment ratio is no more than 0.25.

In the case of NLAT, the enrichment ratio was no more than 0.25.

As for DHVT, the enrichment ratio is no more than 0.25.

Consider QIDG, for which the enrichment ratio worked out at 11.

For SPGG, the enrichment ratio was no more than 0.25.

Turning to TSQE, the enrichment ratio was determined as 5.31.

As for DTGM, the enrichment ratio is no more than 0.25.

On to FHDK, for which the enrichment ratio is no more than 0.25.

With HRQQ, the enrichment ratio is no more than 0.25.

Consider RCEF, for which the enrichment ratio was no more than 0.25.

Consider PDAR, for which the enrichment ratio was no more than 0.25.

For the variant IKEI, the enrichment ratio was no more than 0.25.

On to CPEI, for which the enrichment ratio was no more than 0.25.

As for GMLG, the enrichment ratio came out at 7.81.

LHAN: the enrichment ratio was no more than 0.25.

Turning to KCFI, the enrichment ratio was no more than 0.25.

As for MHWA, the enrichment ratio is no more than 0.25.

In the case of AVSK, the enrichment ratio was found to be 16.9.

For the variant DGDM, the enrichment ratio was no more than 0.25.

For the variant GKPY, the enrichment ratio is no more than 0.25.

Consider STPA, for which the enrichment ratio is no more than 0.25.

For the variant NEIP, the enrichment ratio is no more than 0.25.

Consider FEYV, for which the enrichment ratio is no more than 0.25.

On to AGKQ, for which the enrichment ratio is no more than 0.25.

Consider TYAL, for which the enrichment ratio worked out at 0.505.

As for KAYM, the enrichment ratio is no more than 0.25.

In the case of WILF, the enrichment ratio was no more than 0.25.

For LWQH, the enrichment ratio is no more than 0.25.

As for NYHW, the enrichment ratio is no more than 0.25.

Turning to LYFE, the enrichment ratio is no more than 0.25.

As to HFEW, the enrichment ratio is no more than 0.25.

Take FARI: the enrichment ratio was no more than 0.25.

As for LGSN, the enrichment ratio was no more than 0.25.

In the case of ESAK, the enrichment ratio was no more than 0.25.

On to FTPT, for which the enrichment ratio is no more than 0.25.

Regarding EKQH, the enrichment ratio was no more than 0.25.

In the case of TSTF, the enrichment ratio was found to be 10.

As for TWYC, the enrichment ratio is no more than 0.25.

As for KYNY, the enrichment ratio is no more than 0.25.

Consider MSSQ, for which the enrichment ratio was found to be 6.25.

In the case of QAFG, the enrichment ratio was 1.5.

For LDQR, the enrichment ratio was no more than 0.25.

For HKTN, the enrichment ratio was no more than 0.25.

Regarding VWTH, the enrichment ratio was no more than 0.25.

For TPPG, the enrichment ratio is no more than 0.25.

Consider QDMH, for which the enrichment ratio is no more than 0.25.

For the variant FCFV, the enrichment ratio was no more than 0.25.

WWFY: the enrichment ratio was no more than 0.25.

As for AVFN, the enrichment ratio was no more than 0.25.

Consider PWAT, for which the enrichment ratio was no more than 0.25.

As to LMRR, the enrichment ratio was no more than 0.25.

Consider IICC, for which the enrichment ratio is no more than 0.25.

Consider QMCS, for which the enrichment ratio is no more than 0.25.

For the variant ADIA, the enrichment ratio was no more than 0.25.

For MKPC, the enrichment ratio was no more than 0.25.

For GKIC, the enrichment ratio was no more than 0.25.

Regarding QDHD, the enrichment ratio is no more than 0.25.

With VYRN, the enrichment ratio was no more than 0.25.

As for NAKW, the enrichment ratio is no more than 0.25.

For the variant AWSK, the enrichment ratio is no more than 0.25.

On to IWNH, for which the enrichment ratio was no more than 0.25.

Regarding VATF, the enrichment ratio is no more than 0.25.

With SNPV, the enrichment ratio is no more than 0.25.

HASE: the enrichment ratio was no more than 0.25.

As for PGQS, the enrichment ratio is no more than 0.25.

With YCTG, the enrichment ratio was no more than 0.25.

Consider IHNG, for which the enrichment ratio was no more than 0.25.

Turning to FPVG, the enrichment ratio is no more than 0.25.

Turning to PNVN, the enrichment ratio is no more than 0.25.

With QCYI, the enrichment ratio was no more than 0.25.

On to DFCA, for which the enrichment ratio is no more than 0.25.

Turning to MPFL, the enrichment ratio stood at 4.17.

With YCRW, the enrichment ratio is no more than 0.25.

Regarding PRVG, the enrichment ratio was no more than 0.25.

Take SNLH: the enrichment ratio came out at 9.39.

Regarding MKQI, the enrichment ratio is no more than 0.25.

In the case of FFKM, the enrichment ratio is no more than 0.25.

Consider DDMR, for which the enrichment ratio was no more than 0.25.

With AWIT, the enrichment ratio is no more than 0.25.

For the variant VLVH, the enrichment ratio was no more than 0.25.

Take PSMD: the enrichment ratio was no more than 0.25.

With EIDM, the enrichment ratio was no more than 0.25.

HYLQ: the enrichment ratio is no more than 0.25.

Regarding EIAV, the enrichment ratio was no more than 0.25.

Turning to THIH, the enrichment ratio is no more than 0.25.

For MGFG, the enrichment ratio was found to be 3.15.

Take MATA: the enrichment ratio is no more than 0.25.

With ETTQ, the enrichment ratio was no more than 0.25.

As for ELQY, the enrichment ratio is no more than 0.25.

NQIN: the enrichment ratio is no more than 0.25.

On to EDVI, for which the enrichment ratio was no more than 0.25.

For DDTF, the enrichment ratio was no more than 0.25.

With ADYM, the enrichment ratio was no more than 0.25.

As for KHSW, the enrichment ratio was no more than 0.25.

With RLSV, the enrichment ratio was no more than 0.25.

On to MRPF, for which the enrichment ratio was no more than 0.25.

With KEVW, the enrichment ratio is no more than 0.25.

GQGN: the enrichment ratio is no more than 0.25.

LQTS: the enrichment ratio is no more than 0.25.

Consider TTKC, for which the enrichment ratio is no more than 0.25.

Turning to IQHH, the enrichment ratio is no more than 0.25.

In the case of WENG, the enrichment ratio is no more than 0.25.

NTLT: the enrichment ratio was no more than 0.25.

As for EHFW, the enrichment ratio was no more than 0.25.

On to AGTQ, for which the enrichment ratio was no more than 0.25.

As to QRSD, the enrichment ratio is no more than 0.25.

VISF: the enrichment ratio was no more than 0.25.

With NCKG, the enrichment ratio is no more than 0.25.

For the variant MNYK, the enrichment ratio is no more than 0.25.

For the variant TAER, the enrichment ratio was no more than 0.25.

In the case of SSLK, the enrichment ratio is 5.98.

For RKWC, the enrichment ratio is no more than 0.25.

In the case of WQCA, the enrichment ratio is no more than 0.25.

Regarding GGHF, the enrichment ratio is no more than 0.25.

Turning to KMQL, the enrichment ratio is no more than 0.25.

For RSDN, the enrichment ratio was no more than 0.25.

In the case of GIAM, the enrichment ratio is 33.4.

Take LYFR: the enrichment ratio worked out at 0.305.

For TYIV, the enrichment ratio was no more than 0.25.

For the variant VHWD, the enrichment ratio is no more than 0.25.

Consider GEAL, for which the enrichment ratio amounted to 2.19.

With KSSQ, the enrichment ratio was no more than 0.25.

Take HSKP: the enrichment ratio is no more than 0.25.

Take FWNN: the enrichment ratio is no more than 0.25.

For the variant SYCG, the enrichment ratio was found to be 3.73.

Take KRFV: the enrichment ratio is no more than 0.25.

Regarding DFRF, the enrichment ratio was no more than 0.25.

As to FWRW, the enrichment ratio was no more than 0.25.

On to QYPP, for which the enrichment ratio is no more than 0.25.

Turning to VLGP, the enrichment ratio was no more than 0.25.

As to YMHH, the enrichment ratio is no more than 0.25.

As for NLFH, the enrichment ratio was no more than 0.25.

For TYTF, the enrichment ratio was no more than 0.25.

As for QFYW, the enrichment ratio is no more than 0.25.

As for GGAM, the enrichment ratio was 18.2.

QGMC: the enrichment ratio was 0.535.

Consider YFPE, for which the enrichment ratio was no more than 0.25.

As for KCHM, the enrichment ratio is no more than 0.25.

In the case of FREF, the enrichment ratio is no more than 0.25.

For EWSM, the enrichment ratio was no more than 0.25.

With PLRM, the enrichment ratio is no more than 0.25.

Take YMTQ: the enrichment ratio was no more than 0.25.

For the variant HMTF, the enrichment ratio is no more than 0.25.

With YTQN, the enrichment ratio was no more than 0.25.

Take KGAT: the enrichment ratio is 0.465.
